# PubChem BioAssay AID485294 (National Center for Advancing Translational Sciences (NCATS), 2010)
# Hit rate of the full screen: of about 370,000 compounds, about 150 (0.041%) were called active. The shares of active, inactive and inconclusive entries below differ from those in the screen. Calls follow the shape of the dose curve; as a rule, active = well fitted inhibition curve with a large enough effect; inconclusive = small, poorly fitted or top-dose-only effect; inactive = flat fitted curve, though single readings scatter. Potencies of inconclusive entries are left out as doubtful fits.
# Molecular target: Beta-lactamase (Escherichia coli (strain K12)) (UniProt P00811)
# UniProt P00811, sequence (P00811 whole entry, looked up): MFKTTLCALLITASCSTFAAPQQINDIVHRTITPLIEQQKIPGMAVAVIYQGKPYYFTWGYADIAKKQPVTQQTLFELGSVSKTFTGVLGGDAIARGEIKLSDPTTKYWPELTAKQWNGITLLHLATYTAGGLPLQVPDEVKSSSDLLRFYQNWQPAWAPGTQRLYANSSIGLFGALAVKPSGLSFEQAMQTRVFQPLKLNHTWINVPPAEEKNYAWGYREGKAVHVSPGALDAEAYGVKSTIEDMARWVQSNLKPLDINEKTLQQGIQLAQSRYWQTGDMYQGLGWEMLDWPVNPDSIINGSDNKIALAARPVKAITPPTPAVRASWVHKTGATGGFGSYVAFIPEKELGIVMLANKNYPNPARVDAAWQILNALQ
# Test: qHTS Inhibitors of AmpC Beta-Lactamase (assay with detergent); also: nearly all actives have a fitted effect of over 25% in size;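 as to activity change, negative = inhibition: 0% = no-compound wells and -100% = no-enzyme wells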
# Details: AmpC hydrolysis of nitrocefin, absorbance 480 nm, 0.01% Triton; activity change, negative = inhibition: at 114 µM (top of the series)
# How it was run: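 AmpC (5.3 nM in the dispensed reagent) in 20 mM phosphate pH 7.0 with 0.01% (detergent screen) or 0.0001% Triton X-100 was preincubated with compounds for 15 min at room temperature. Nitrocefin was then added from an 800 uM solution, and hydrolysis was followed at 480 nm.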
# Potency is read from the fitted curve at half-maximal effect; tags tell the direction and shape of the fitted curve.
SMILES,"activity change, negative = inhibition",Potency
O=C(N/N=C\c1cccnc1)c1ccc(Cl)s1,inactive: -7.26%,
CN(C(=O)CSc1nc(-c2ccccc2)no1)c1ccc(F)cc1,inactive: 1.25%,
O=C(CCC1CCCN(C(=O)c2ccc3c(c2)OCO3)C1)N1CCN(c2ccccn2)CC1 (stereo not drawn),inactive: 3.53%,
CC(Oc1ccccc1)C(=O)N1CCN(c2ccc(N3CCOCC3)nn2)CC1 (stereo not drawn),,"inconclusive [inhibitor, full curve, poor fit]"
O=Cc1c(N2CCN(c3ccccc3)CC2)nc2ccccn2c1=O,inactive: 0.502%,
O=C1c2ccccc2NC(c2ccccc2O)N1O (stereo not drawn),,"inconclusive [inhibitor, single point]"
CCOc1ccccc1C1C(C(=O)Nc2ccccc2)=C(C)Nc2nc(SCC(=O)c3ccc(C)cc3)nn21 (stereo not drawn),inactive: 2.73%,
Cc1ccc2cc3cc(C(=O)N4CCCCC4C)oc3nc2c1 (stereo not drawn),,"inconclusive [inhibitor, full curve, poor fit]"
Cc1ccc(Cl)cc1N1CCN(S(=O)(=O)c2cn(C)c(C)n2)CC1,inactive: -2.57%,
Cc1oc(C(C)(C)C)cc1C(=O)Nc1ccc(C(=O)O)cc1,inactive: -11.3%,
N#Cc1cccc(N=c2ssnc2Cl)c1,inactive: -12.8%,
CCOC(=O)c1sc(=S)n(-c2ccc(Cl)cc2)c1SC,,"inconclusive [inhibitor, partial curve, poor fit]"
CCc1ccc(NC(=O)c2cc(-c3ccc(OC)cc3)on2)cc1,inactive: -14%,
CCOC(=O)c1cc(-c2ccccc2)n(CCC(=O)O)c1C,inactive: 0.378%,
CCOC(=O)N1CCC(NC(=O)CCc2nc(-c3ccc(C)cc3)no2)CC1,,"inconclusive [inhibitor, full curve, poor fit]"
COC(=O)C1=C(C)N(c2ccc(OC)c(OC)c2)C(=O)C1,,"inconclusive [inhibitor, partial curve, poor fit]"
O=C(N1CCN(c2ccccn2)CC1)N1c2ccccc2Sc2ccccc21,,"inconclusive [inhibitor, single point]"
CCC(=O)NCCn1c(C)cc2ccccc21,,"inconclusive [inhibitor, partial curve]"
Clc1ccccc1OCCn1cnc2ccccc21,inactive: 1.13%,
CCCN(CC(=O)Nc1cc(C)on1)S(=O)(=O)c1cccc(C(F)(F)F)c1,,"inconclusive [inhibitor, full curve, poor fit]"
COc1cccc(/C=N/Nc2snc(SC)c2C#N)c1O,,"inconclusive [inhibitor, full curve, poor fit]"
Cc1cc(NS(=O)(=O)c2ccc(N3C(=O)C4C5C=CC(C5)C4C3=O)cc2)nc(C)n1 (stereo not drawn),,"inconclusive [inhibitor, partial curve, poor fit]"
Cc1ccc(S(=O)(=O)N(C)C)cc1NC(=O)C(C)NC(C)c1cccs1 (stereo not drawn),inactive: 1.46%,
CC(C)(C)NC(=O)C(c1ccc(Cl)cc1)N(Cc1ccco1)C(=O)CCl (stereo not drawn),,"inconclusive [inhibitor, single point]"
COc1ccc(-c2noc(CCC(=O)NCc3ccco3)n2)cc1,inactive: 9.77%,

SMILES,"activity change, negative = inhibition",Potency
CCOC(=O)c1c(C)n(-c2ccc(C)cc2)c2ccc(OCC(O)CNCC3CCCO3)cc12 (stereo not drawn),inactive: 0.119%,
Cc1ccc(OC(C)C(=O)Nc2ccncc2)cc1 (stereo not drawn),,"inconclusive [inhibitor, partial curve, poor fit]"
CCCc1cc(C(N)=O)c(NC(=O)C2CCCO2)s1 (stereo not drawn),,"inconclusive [inhibitor, partial curve]"
O=C(c1ccc(N2C(=O)C3C4c5ccccc5C(c5ccccc54)C3C2=O)cc1)N1CCOCC1 (stereo not drawn),,"inconclusive [inhibitor, single point]"
Cc1ccccc1OCCn1c(=S)[nH]c2c(N)ncnc21,,"inconclusive [inhibitor, partial curve, poor fit]"
O=c1c2c3c(sc2n2cnnc2n1-c1ccccc1)N(Cc1ccccc1)CCC3,,"inconclusive [inhibitor, full curve, poor fit]"
Cc1cc(C)nc(/N=C(\N)Nc2ccc(-c3ccccc3)cc2)n1,inactive: -2.92%,
CCc1ccc(Sc2cc(C(=O)NCc3cccc(OC)c3)c3ccccc3n2)cc1,inactive: 9.58%,
O=C(c1cc2ccccc2oc1=O)N1CCN(c2ccc(N3CCOCC3)nn2)CC1,,"inconclusive [inhibitor, full curve, poor fit]"
COC(=O)c1ccc(OCC2c3cc(OC)c(OC)cc3CCN2C(=O)Cc2ccc(OC)cc2)cc1 (stereo not drawn),inactive: 8.93%,
Cc1cc(=O)n2[nH]c(SCc3ccccc3Cl)nc2n1,,"inconclusive [inhibitor, partial curve]"
Cn1cnc2c1c(=O)n(Cc1ccc(Cl)cc1Cl)c(=O)n2C,,"inconclusive [inhibitor, partial curve, poor fit]"
Cc1cc(OC(C)C(=O)Nc2c(C(=O)c3ccc(F)cc3)oc3ccccc23)ccc1Cl (stereo not drawn),inactive: 0.359%,
O=C(O)c1ccc(-n2nncc2-c2ccccc2)cc1,,"inconclusive [inhibitor, full curve, poor fit]"
COc1ccc(C=O)cc1C1=CC(=O)C[C@H](c2ccc(Cl)cc2)C1,inactive: 1.81%,
O=C(Nc1ccn(Cc2ccc(Cl)cc2)n1)c1ccccc1,inactive: -9.28%,
CCCCn1c(N)c(N(CC(C)C)C(=O)C2CC(=O)N(c3ccc(C)cc3)C2)c(=O)[nH]c1=O (stereo not drawn),,"inconclusive [inhibitor, full curve, poor fit]"
Cc1ccccc1Cn1c(CN2CCN(C(=O)c3ccco3)CC2)nc2c1c(=O)n(C)c(=O)n2C,,"inconclusive [inhibitor, full curve]"
Cc1ccc(C)c(OCC(=O)NCCNC(=O)COc2cc(C)ccc2C)c1,,"inconclusive [inhibitor, single point]"
Cc1cccc(N2C(=O)N(CC(=O)C(C)(C)C)c3ccccc3S2(=O)=O)c1C,inactive: -4%,
CN(C)S(=O)(=O)N(CC(=O)NCCSCc1ccccc1)c1ccccc1,,"inconclusive [inhibitor, full curve, poor fit]"
Cc1cc(C)n(-c2ccc(C(=O)OCC(=O)NCc3ccco3)cc2)n1,,"inconclusive [inhibitor, full curve, poor fit]"
O=C(CCNC(=O)C1CCN(S(=O)(=O)c2ccc(F)cc2)CC1)NCc1ccc(Cl)cc1,inactive: -0.311%,
Cc1nc(NS(=O)(=O)c2cccc([N+](=O)[O-])c2)sc1C(C)(C)C,,"inconclusive [inhibitor, full curve]"
c1cncc(-c2csc(-c3cccnc3)n2)c1,inactive: 1.07%,

SMILES,"activity change, negative = inhibition",Potency
COc1ccc2c(=O)c(-c3ccc4c(c3)OCO4)coc2c1,inactive: -7.12%,
CCOC(=O)c1ccc(OCCOc2ccccc2C)cc1,inactive: 2.94%,
Cc1nc(C)c(Cc2ccccc2Cl)c(=O)[nH]1,,"inconclusive [inhibitor, single point]"
CCNC(=S)N1CCC(C(=O)c2ccc(Cl)cc2)CC1,,"inconclusive [inhibitor, full curve, poor fit]"
Cc1cccc(NC(=O)CSCC(=O)N(CCC(C)C)c2c(N)n(Cc3ccccc3)c(=O)[nH]c2=O)c1,inactive: -15.1%,
Cc1ccc(S(=O)(=O)N2CCCCC2)cc1NC(=O)c1cccnc1,,"inconclusive [inhibitor, full curve, poor fit]"
CCCc1ccc(C(=O)CCC(=O)NNC(=O)c2ccncc2)cc1,,"inconclusive [inhibitor, partial curve, poor fit]"
Cc1noc(C)c1C(=O)N1CCN(S(=O)(=O)c2ccc(F)cc2)CC1,inactive: -0.286%,
COc1ccccc1N1CCN(C(=O)CSc2nnc3c4ccccc4n(CC(=O)O)c3n2)CC1,,"inconclusive [inhibitor, full curve, poor fit]"
CC(C)NS(=O)(=O)c1ccc(CCC(=O)NCc2ccncc2)cc1,inactive: -3.11%,
COc1ccc2cc(C(=O)/C=C/c3cc(OC)c(OC)c(OC)c3)ccc2c1,,"inconclusive [inhibitor, partial curve, poor fit]"
Cc1ccc2c(c1)-c1c(ssc1=S)C(C)(C)N2C(=O)c1ccco1,,"inconclusive [inhibitor, partial curve, poor fit]"
CCN(C(=O)COC(=O)c1ccccc1SCC(=O)N1CCCC1)C1CCS(=O)(=O)C1 (stereo not drawn),,"inconclusive [inhibitor, full curve, poor fit]"
COC(=O)c1cn(C(=O)c2ccccc2Cl)c2ccccc12,,"inconclusive [inhibitor, single point]"
CCC1CCCCN1C(=O)C(=O)c1cn(CC(=O)N(CC)CC)c2ccccc12 (stereo not drawn),inactive: -1.17%,
NC(=O)c1cnn(-c2cccc(Cl)c2)c1N,inactive: 7.44%,
Cc1ccc(OCc2nc(-c3ccc(C(=O)N4CCN(c5ccccc5F)CC4)cc3)oc2C)cc1,inactive: -0.805%,
COc1cc(OC)cc(-c2n[nH]c(=S)n2-c2ccc3c(c2)OCO3)c1,,"inconclusive [inhibitor, full curve, poor fit]"
O=c1c2c3c(sc2[nH]c(=S)n1Cc1ccco1)CCC3,inactive: 3.09%,
Cc1ccnc2c(N3C(=O)C4C5c6ccccc6C(c6ccccc65)C4C3=O)cccc12 (stereo not drawn),inactive: 4.45%,
Cc1nn2c(-c3ccncc3)ccnc2c1Br,,"inconclusive [inhibitor, full curve, poor fit]"
CC(=O)N1CCC(=O)Nc2ccc([N+](=O)[O-])cc21,,"inconclusive [inhibitor, single point]"
Cc1cccc(C(=O)N(Cc2ccco2)c2c(N)n(Cc3ccccc3)c(=O)[nH]c2=O)c1,,"inconclusive [inhibitor, full curve, poor fit]"
